This is one part of the list. Most values come without repeats; read them as rough.
Key:
Assay in all cases: cell count relative to DMSO control; melanoma cells; higher = more viable cells
Details in all cases: library dose: standard library concentration; 72 h
A101D = test system: A101D
A2058 = test system: A2058
A375 = test system: A375
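Also: cells treated in 1,536-well plates, then fixed and DAPI-stained, with nuclei counted from automated high-throughput microscope images.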

Compound | cell count (A101D) | cell count (A2058) | cell count (A375)
Cc1cc(Nc2cc(N3CCN(C)CC3)nc(Sc3ccc(NC(=O)C4CC4)cc3)n2)n[nH]1 [Tozasertib] + NC1(c2ccc(-c3nc4ccn5c(=O)[nH]nc5c4cc3-c3ccccc3)cc2)CCC1 [MK2206] (first compound 0.03 µM, partner dose 2 µM) | 76.7% | 72.4% | 96.1%
N#CC[C@H](C1CCCC1)n1cc(-c2ncnc3[nH]ccc23)cn1 [ruxolitinib] + CN(C)S(=O)(=O)c1ccc2c(c1)/C(=C/c1cc3c([nH]1)CCCC3)C(=O)N2 [SU6656] (first compound 5 µM, partner dose 2 µM) | 82.1% | 74.2% | 144%
CC[C@]1(O)C[C@H]2CN(CCc3c([nH]c4ccccc34)[C@@](C(=O)OC)(c3cc4c(cc3OC)N(C=O)[C@H]3[C@@](O)(C(=O)OC)[C@H](OC(C)=O)[C@]5(CC)C=CCN6CC[C@]43[C@@H]65)C2)C1 [vincristine] + Cn1sc(=O)n(Cc2ccccc2)c1=O [TDZD-8] (first compound 0.0005 µM, partner dose 2 µM) | 67.9% | 89% | 104%
N#CC[C@H](C1CCCC1)n1cc(-c2ncnc3[nH]ccc23)cn1 [ruxolitinib] + COc1cc([C@@H]2c3cc4c(cc3[C@@H](O[C@@H]3O[C@@H]5CO[C@@H](C)O[C@H]5[C@H](O)[C@H]3O)[C@H]3COC(=O)[C@H]23)OCO4)cc(OC)c1O [etoposide] (first compound 5 µM, partner dose 0.1 µM) | 111% | 73.1% | 91.4%
N#CC[C@H](C1CCCC1)n1cc(-c2ncnc3[nH]ccc23)cn1 [ruxolitinib] + O=c1[nH]nc(Sc2ncc([N+](=O)[O-])s2)n1-c1ccc2c(c1)OCCO2 [BI78D3] (first compound 5 µM, partner dose 1 µM) | 87.4% | 70.4% | 114%
